From the supplement of paper PMC10126150
Values marked as one replicate rest on one cluster of the flow cell; about a third of the high ones do not repeat.

System: ATP
Assay: switch fluorescence ratio, 500 uM ATP over buffer (Cy3 cluster intensity, sum of 5 cycles each) (fold (ratio)); higher = stronger signal-on switching upon ATP binding; sequences stand for … in TCGTCGGCAGCGTCAGATGTGTATAAGAGACAGTTTTTTTTTTTTTTTTTTTTTTTTT…TC
Settings: aptamer strand: ATP DNA aptamer (quencher-CACCTGGGGGAGTATTGCGGAGGAAGG + anchor), 100 nM annealed; ATP concentration: 500 uM; one replicate
Outline: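 Exposure to 500 uM ATP lasted 15 min at 22 °C before imaging, and a selection-buffer image was taken beforehand, for Cy3-labelled switching-strand clusters on a modified Illumina MiSeq flow-cell annealed to 100 nM quencher-labelled ATP aptamer. Five buffer/ATP cycles were run with NaOH stripping and re-annealing between them. The fluorescence ratio per cluster is summed target-cycle over summed buffer-cycle Cy3 intensity, averaged per switch-domain sequence. Clusters outside 100-1000 RFU were excluded.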

ATAATCAGGA
switch fluorescence ratio: 1.03

ATGCAGGCCC
switch fluorescence ratio: 1.01

AGAAGAATTC
switch fluorescence ratio: 1.03

ACGATGGGGC
switch fluorescence ratio: 1.03

ATATTTCAAT
switch fluorescence ratio: 1.03

AATGTACCAG
switch fluorescence ratio: 1.05

CGGTCTAGGC
switch fluorescence ratio: 0.997

GTGATGCGAA
switch fluorescence ratio: 1.04

TGGCGTAAGA
switch fluorescence ratio: 0.979

TCAATTCTGT
switch fluorescence ratio: 0.994

GCTGCCCGGG
switch fluorescence ratio: 1.02

GACTCGTC
switch fluorescence ratio: 1.03

TAGTTCAGAC
switch fluorescence ratio: 0.988

TGCGCTCATG
switch fluorescence ratio: 1.03

AGCGTGAGTC
switch fluorescence ratio: 1.06

AGATTCGGTA
switch fluorescence ratio: 0.988

AAAGAAGTCG
switch fluorescence ratio: 1

GGGAGTTCTC
switch fluorescence ratio: 1.03

AGGGTGATGG
switch fluorescence ratio: 0.988

GGCTATAGAT
switch fluorescence ratio: 0.97

TAGTTAAGCG
switch fluorescence ratio: 0.965

TTGAAGCGAT
switch fluorescence ratio: 1.07

CAGCACAAGG
switch fluorescence ratio: 1.08

CCCTATACGG
switch fluorescence ratio: 1.17

CGTTCCGGTA
switch fluorescence ratio: 1.06

GGTTGCTCAA
switch fluorescence ratio: 1.05

CGTGCGGGG
switch fluorescence ratio: 0.971

CGAAGTTGTG
switch fluorescence ratio: 0.95

GGTCGGAGTT
switch fluorescence ratio: 1.03

TTGTGGGCTT
switch fluorescence ratio: 1.39

TATTCTGAAA
switch fluorescence ratio: 0.989

GCAAACAGCC
switch fluorescence ratio: 1.08

GTCATCCCTA
switch fluorescence ratio: 0.996

GGGCTTTTCT
switch fluorescence ratio: 0.998

CAAATTGAGC
switch fluorescence ratio: 1.05

TTAGGTTTCG
switch fluorescence ratio: 0.962

ATTAAGTGCG
switch fluorescence ratio: 0.985

GCTATAGTCC
switch fluorescence ratio: 3.19

CATTTGGCTC
switch fluorescence ratio: 0.96

CAGAATGTAC
switch fluorescence ratio: 1.04

GTCCGTGGCT
switch fluorescence ratio: 0.959

CCCGGGTTGC
switch fluorescence ratio: 1.24

AGCGGCCTAG
switch fluorescence ratio: 0.956

TCCATATGTA
switch fluorescence ratio: 0.993

GAGTGCACTT
switch fluorescence ratio: 1.04

GCGAGTTGTA
switch fluorescence ratio: 1.01

CATAACTTAG
switch fluorescence ratio: 1.06

GTGGTCCGT
switch fluorescence ratio: 0.941

CAGCGTCGGC
switch fluorescence ratio: 0.944

GGAGGAGTCA
switch fluorescence ratio: 0.994

GGGTTGCCCG
switch fluorescence ratio: 0.956

TAGTGATGAT
switch fluorescence ratio: 1

AAACGTATTG
switch fluorescence ratio: 1.07

ACCGGACTTA
switch fluorescence ratio: 1.12

CATTAGCCCA
switch fluorescence ratio: 1.04

AAGGTGGAAA
switch fluorescence ratio: 0.939

TGAATCCACG
switch fluorescence ratio: 1.04

ACAGCGGAAG
switch fluorescence ratio: 1.04

TTAGGTTGAG
switch fluorescence ratio: 0.978

CCTGAGGCGT
switch fluorescence ratio: 1.03

CATGGAGTAT
switch fluorescence ratio: 0.963

CTTCGTGATT
switch fluorescence ratio: 1.22

CTCTAATTGT
switch fluorescence ratio: 1

TGTTGGAAAT
switch fluorescence ratio: 0.982

TTGCTTCCTG
switch fluorescence ratio: 1.05

GAGCTGACCT
switch fluorescence ratio: 1.18

AGAACAGCGC
switch fluorescence ratio: 1.04

TGTGAAAGTT
switch fluorescence ratio: 1.02

GGTCTCATAC
switch fluorescence ratio: 1.04

ATCGATGGTT
switch fluorescence ratio: 0.965

AATGATGCAG
switch fluorescence ratio: 1.03

ACAAGGCATC
switch fluorescence ratio: 1.02

TCTTCGAGCA
switch fluorescence ratio: 1.17

CTTGGGCGTG
switch fluorescence ratio: 0.99

ACTACTCCCG
switch fluorescence ratio: 1.4

CGAGATGACT
switch fluorescence ratio: 0.984

GCTGGAATAG
switch fluorescence ratio: 1.21

ACAGCGACTG
switch fluorescence ratio: 0.998

AGACCGTGAA
switch fluorescence ratio: 1.03

TACGCGGTGA
switch fluorescence ratio: 1.08

TAATGCCTCT
switch fluorescence ratio: 1.05

CCTAATCATA
switch fluorescence ratio: 0.999

CCTGATGTT
switch fluorescence ratio: 1.03

GAAAGGAAC
switch fluorescence ratio: 0.998

TAGTTTCGCA
switch fluorescence ratio: 1.04

CAAGTCTCTT
switch fluorescence ratio: 1.03

TTCGGCCTTC
switch fluorescence ratio: 1.11

ATCCGGTCC
switch fluorescence ratio: 1.13

GGTGTCCGCC
switch fluorescence ratio: 1

AGTATGCGTG
switch fluorescence ratio: 1

TGTGGATGCC
switch fluorescence ratio: 0.992

GCTCGCGATT
switch fluorescence ratio: 1.31

AGGCTAGGG
switch fluorescence ratio: 1.04

GCCAGAGCAT
switch fluorescence ratio: 1.07

AGTGTCACCT
switch fluorescence ratio: 1.05

GAATCGCGGC
switch fluorescence ratio: 0.959

GGGCGGAGCC
switch fluorescence ratio: 0.974

CATGGCGCGG
switch fluorescence ratio: 1

TATGGGGTCT
switch fluorescence ratio: 1.1

AAATTCCG
switch fluorescence ratio: 0.999

CATGATATGT
switch fluorescence ratio: 0.994

GGGTGCCAGC
switch fluorescence ratio: 1.02

CATAAACGT
switch fluorescence ratio: 1.06

GTGGGAACGA
switch fluorescence ratio: 0.977

TGTGTTCTTC
switch fluorescence ratio: 0.986

TGCGCCCGGA
switch fluorescence ratio: 1.03

TGAGTTGTAA
switch fluorescence ratio: 0.969

ACCTATGTAG
switch fluorescence ratio: 1.04

AATTACGCGC
switch fluorescence ratio: 1.03

GCAGGTTTT
switch fluorescence ratio: 0.975

TCCCAATGGT
switch fluorescence ratio: 1.12

CCTTTGAT
switch fluorescence ratio: 0.99

GGCCGACCTC
switch fluorescence ratio: 1.19

ATGCGGACGG
switch fluorescence ratio: 1.04

TGTAGTAGGG
switch fluorescence ratio: 0.963

GTTTGGAGAC
switch fluorescence ratio: 1.01

AGGACGCAT
switch fluorescence ratio: 1.82

AGATAGATTA
switch fluorescence ratio: 1

CTCACAACTG
switch fluorescence ratio: 0.985

TATTTGAGCG
switch fluorescence ratio: 0.987

ACCACCATCG
switch fluorescence ratio: 1.15

TAGCACCAG
switch fluorescence ratio: 1.05

ACACTGCGAA
switch fluorescence ratio: 1.12

GGTGAGGTGG
switch fluorescence ratio: 0.995

CTGTTTGGA
switch fluorescence ratio: 1.1

ACCTGCGCCT
switch fluorescence ratio: 1.34

CCTGATTCGG
switch fluorescence ratio: 1.01

CTGCCTGCAG
switch fluorescence ratio: 1.01

GAAGTTCGGT
switch fluorescence ratio: 1.07

CATGCGGAGG
switch fluorescence ratio: 1.01

GAATCAACGG
switch fluorescence ratio: 1.04

GGTTTTGCAT
switch fluorescence ratio: 0.969

ATGAACAACC
switch fluorescence ratio: 1.02

TTGCATCATT
switch fluorescence ratio: 1.03

CTGCTAGGAG
switch fluorescence ratio: 0.975

AGTCCACGCA
switch fluorescence ratio: 1.18

CACTTTTCGA
switch fluorescence ratio: 0.982

AACTTATTC
switch fluorescence ratio: 1.02

ATGTGTGGAC
switch fluorescence ratio: 1.04

TCTTGACA
switch fluorescence ratio: 0.955

AAAGGATAT
switch fluorescence ratio: 1

TGGACAATT
switch fluorescence ratio: 1.02

AATAAGCGGG
switch fluorescence ratio: 0.988

AGGTGCGTCA
switch fluorescence ratio: 0.983

CACGAGCGCC
switch fluorescence ratio: 1.05

AGGTGCTCTG
switch fluorescence ratio: 1.04

TGGTATTCCT
switch fluorescence ratio: 1.03

CGGCCCAGGT
switch fluorescence ratio: 4.74

AGAGCGGGCC
switch fluorescence ratio: 0.773

GTTCCTCCTG
switch fluorescence ratio: 2.3

TGTCGAAAGC
switch fluorescence ratio: 1.3

TATAGGTTAA
switch fluorescence ratio: 0.977

CGGTATCGGT
switch fluorescence ratio: 0.949

CATAATACTT
switch fluorescence ratio: 1

ACTGGGTTGC
switch fluorescence ratio: 0.989

GCTCAAATAT
switch fluorescence ratio: 1.05

TTTGGCACCC
switch fluorescence ratio: 0.959

GTGGTGTCGG
switch fluorescence ratio: 0.995
